# Measurements as given in PubChem BioAssay AID220 (DTP/NCI, 2004).
# Records with an inconclusive call do not appear. For part of its entries the source gives two or more results. This list holds those alone. There may be further records. Results that share an entry do not match, cause unknown; some may be repeats, others may stem from another dose, organism or construct than stated.
# System: CD8F1 mice, subcutaneous mammary adenocarcinoma, T/C%
# Assay: NCI In Vivo Anticancer Drug Screen. Data for tumor model Mammary Adenocarcinoma CD8F1 (subcutaneous) in CD8F1
# Settings: higher = larger tumour
# Procedure, shortened: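 Transplantable tumors were established in mice, animals were dosed with compound or vehicle, and survival or tumor size was then measured in both groups. The treated result was divided by the control result.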
# [1] = endpoint: median tumor weight change, dose: 40.0 mg/kg/injection, schedule: Q01DX001 (ip), vehicle: saline
compound,measurement,setting,value
COc1cc2cc(c1Cl)N(C)C(=O)C[C@H](OC(=O)[C@H](C)N(C)C(C)=O)[C@]1(C)O[C@H]1[C@H](C)[C@@H]1C[C@@](O)(NC(=O)O1)[C@H](OC)C=C/C=C(\C)C2,T/C,"endpoint: median tumor weight change, dose: 250.0 micrograms/kg/injection, schedule: Q01DX001 (ip), vehicle: Klucel (hydroxypropylcellulose) (HPC)",49 % of control and 82 % of control
COC1=C(C)C(=O)C2=C(C1=O)C(CO)N1C(C#N)C3CC4C(C1C2N1CCOC41)N3C (centres undefined),T/C,"endpoint: median tumor weight change, dose: 2.5 mg/kg/injection, schedule: Q01DX001 (ip), vehicle: saline + alcohol",66 % of control and 100 % of control
same,T/C,"endpoint: median tumor weight change, dose: 5.0 mg/kg/injection, schedule: Q01DX001 (ip), vehicle: saline + alcohol","17 % of control, 69 % of control, 70 % of control"
COC1=C2C[C@@H](C)C[C@@H](OC)[C@@H](O)[C@H](C)/C=C(\C)[C@@H](OC(N)=O)[C@H](OC)/C=C\C=C(/C)C(=O)NC(=CC1=O)C2=O,T/C,"endpoint: median tumor weight change, dose: 10.0 mg/kg/injection, schedule: Q01DX001 (ip), vehicle: saline with Tween-80",43 % of control and 107 % of control
Cc1c2cc[n+](CCN3CCCCC3)cc2c(C)c2c1[nH]c1ccc(O)cc12,T/C,"endpoint: median tumor weight change, dose: 15.62 mg/kg/injection, schedule: Q01DX001 (ip), vehicle: suspension in saline",85 % of control and 119 % of control
Nc1ncn(C2OC(CO)C(O)C2O)c(=O)n1 (centres undefined),T/C,[1],-44 % of control and 64 % of control
same,T/C,"endpoint: median tumor weight change, dose: 60.0 mg/kg/injection, schedule: Q01DX001 (ip), vehicle: saline","-57 % of control, 21 % of control, 76 % of control"
same,T/C,"endpoint: median tumor weight change, dose: 90.0 mg/kg/injection, schedule: Q01DX001 (ip), vehicle: saline",-50 % of control and 35 % of control
same,T/C,"endpoint: median tumor weight change, dose: 900.0 mg/kg/injection, schedule: Q01DX001 (ip), vehicle: suspension in saline",7 % of control and 58 % of control
CCN(CC)CCCNc1nccc2c(C)c3[nH]c4ccncc4c3cc12,T/C,"endpoint: median tumor weight change, dose: 12.5 mg/kg/injection, schedule: Q01DX001 (ip), vehicle: other","43 % of control, 49 % of control, 113 % of control"
Cc1cc(NCCN(C(C)C)C(C)C)nc(/N=C(\N)Nc2ccc(Cl)c(C(F)(F)F)c2)n1,T/C,"endpoint: median tumor weight change, dose: 25.0 mg/kg/injection, schedule: Q01DX001 (ip), vehicle: Klucel (hydroxypropylcellulose) (HPC)",49 % of control and 75 % of control
CC1c2ccccc2CC(CCN(C)C)c2ccccc21 (centres undefined),T/C,"endpoint: median tumor weight change, dose: 31.25 mg/kg/injection, schedule: Q01DX001 (ip), vehicle: saline with Tween-80",42 % of control and 89 % of control
N=c1c(C(=O)OCc2ccccc2)ncc(CCl)n1O,T/C,"endpoint: median tumor weight change, dose: 125.0 mg/kg/injection, schedule: Q01DX001 (ip), vehicle: saline with Tween-80",75 % of control and 101 % of control
S=C(Nc1ccc(Cl)c(Cl)c1)N1c2ccccc2-n2cccc2C1c1cccnc1 (centres undefined),T/C,"endpoint: median tumor weight change, dose: 125.0 mg/kg/injection, schedule: Q01DX001 (ip), vehicle: Klucel (hydroxypropylcellulose) (HPC)",57 % of control and 101 % of control
CN(C1=NS(=O)(=O)N=C(N(C)c2ccccc2)O1)c1ccccc1,T/C,"endpoint: median tumor weight (est.), dose: 400.0 mg/kg/injection, schedule: Q07DX005 (ip), vehicle: Klucel (hydroxypropylcellulose) (HPC)",32 % of control and 81 % of control
same,T/C,"endpoint: median tumor weight change, dose: 200.0 mg/kg/injection, schedule: Q01DX001 (ip), vehicle: Klucel (hydroxypropylcellulose) (HPC)","47 % of control, 75 % of control, 103 % of control"
same,T/C,"endpoint: median tumor weight change, dose: 400.0 mg/kg/injection, schedule: Q01DX001 (ip), vehicle: Klucel (hydroxypropylcellulose) (HPC)","64 % of control, 91 % of control, 154 % of control"
ClCCCN1CCN(CCCl)CC1,T/C,[1],"-43 % of control, -17 % of control, -13 % of control"
O=C(O)CCCc1ccc(N(CCCl)CCCl)cc1,T/C,"endpoint: median tumor weight (est.), dose: 4.0 mg/kg/injection, schedule: Q07DX005 (ip), vehicle: saline",66 % of control and 93 % of control
same,T/C,"endpoint: median tumor weight (est.), dose: 8.0 mg/kg/injection, schedule: Q07DX005 (ip), vehicle: saline",18 % of control and 78 % of control
same,T/C,"endpoint: median tumor weight (est.), dose: 16.0 mg/kg/injection, schedule: Q07DX005 (ip), vehicle: saline",25 % of control and 52 % of control
COc1nc(C(Cl)(Cl)Cl)c(Cl)c(OC)c1Cl,T/C,"endpoint: median tumor weight change, dose: 90.0 mg/kg/injection, schedule: Q01DX005 (ip), vehicle: Klucel (hydroxypropylcellulose) (HPC)",-24 % of control and 27 % of control
same,T/C,"endpoint: median tumor weight change, dose: 135.0 mg/kg/injection, schedule: Q01DX005 (ip), vehicle: Klucel (hydroxypropylcellulose) (HPC)",-32 % of control and 15 % of control
same,T/C,"endpoint: median tumor weight change, dose: 250.0 mg/kg/injection, schedule: Q01DX001 (ip), vehicle: Klucel (hydroxypropylcellulose) (HPC)","39 % of control, 64 % of control, 84 % of control"
same,T/C,"endpoint: median tumor weight change, dose: 500.0 mg/kg/injection, schedule: Q01DX001 (ip), vehicle: Klucel (hydroxypropylcellulose) (HPC)","5 % of control, 49 % of control, 66 % of control"
same,T/C,"endpoint: median tumor weight change, dose: 1000.0 mg/kg/injection, schedule: Q01DX001 (ip), vehicle: Klucel (hydroxypropylcellulose) (HPC)","-53 % of control, -1 % of control, 11 % of control"
CCCCC(=O)OCC(=O)[C@]1(O)Cc2c(O)c3c(c(O)c2[C@@H](OC2CC(NC(=O)C(F)(F)F)C(O)C(C)O2)C1)C(=O)c1c(OC)cccc1C3=O (some centres undefined),T/C,"endpoint: median tumor weight change, dose: 133.0 mg/kg/injection, schedule: Q01DX001 (ip), vehicle: clinical formulation",-15 % of control and 31 % of control
same,T/C,"endpoint: median tumor weight change, dose: 200.0 mg/kg/injection, schedule: Q01DX001 (ip), vehicle: clinical formulation",-31 % of control and 53 % of control
same,T/C,"endpoint: median tumor weight change, dose: 300.0 mg/kg/injection, schedule: Q01DX001 (ip), vehicle: clinical formulation",-41 % of control and 8 % of control
CC(=O)N(C)C,T/C,"endpoint: median tumor weight change, dose: 1800.0 mg/kg/injection, schedule: Q01DX001 (ip), vehicle: saline",41 % of control and 69 % of control
same,T/C,"endpoint: median tumor weight change, dose: 3600.0 mg/kg/injection, schedule: Q01DX001 (ip), vehicle: saline",19 % of control and 58 % of control
CC(=O)N(C)c1ccc(Nc2cc(C)[nH]c3ccc4ncnc4c23)cc1,T/C,"endpoint: median tumor weight change, dose: 62.5 mg/kg/injection, schedule: Q01DX001 (ip), vehicle: saline",45 % of control and 74 % of control
COc1ccc2c(c1)CCn1c(C)c(COC(=O)NC(C)C)c(COC(=O)NC(C)C)c1-2,T/C,"endpoint: median tumor weight change, dose: 62.5 mg/kg/injection, schedule: Q01DX001 (ip), vehicle: distilled water + Tween-80",16 % of control and 77 % of control
same,T/C,"endpoint: median tumor weight change, dose: 125.0 mg/kg/injection, schedule: Q01DX001 (ip), vehicle: distilled water + Tween-80",36 % of control and 70 % of control
